Among all 52,000 compounds or so, about 1,700 (3.3%) were called active. Rule as the data show it: active = survival mostly below about 52% (no sharp cut-off); inactive = mostly above about 56%. Some of the results follow.
These compounds were tested on Wild type (assay: S. aureus survival, RN4220 and DeltatarO strains – OD600, teichoic acid synthesis inhibitors, primary screen (AID 463173)). Settings: S. aureus RN4220 wild type/DeltatarO growth, OD600, 18 h, stronger effect = lower value, screened at 18.75 µg/mL (by protocol).

Row | SMILES | survival
1 | Cc1ccc(-n2c(=O)c3c(c4cc(C)ccc4n3C)n(CC(=O)c3ccc(Cl)cc3)c2=O)cc1 | inactive: 135%
2 | COC(=O)c1ccccc1NC(=O)c1nc(-c2ccc(Cl)cc2)n2c1CCCCC2 | inactive: 126%
3 | CCOc1cccc(C(=O)Nc2cc(C)c(O)c(-c3nc4ncccc4o3)c2)c1 | inactive: 84%
4 | Cc1ccc2c(=O)c(C(=O)c3ccc(F)cc3)cn(CC(=O)Nc3ccc4c(c3)OCCO4)c2n1 | inactive: 73%
5 | Cc1ccc(NC(=O)c2ccc(CN3CC(=O)N4CCCCC4C3=O)cc2)c(C)c1 (configuration not stated) | inactive: 98%
6 | COC(=O)c1ccc(NC(=O)CSc2nnc3c4ccccc4n(C(C)C)c3n2)cc1 | inactive: 67%
7 | COc1cccc(Cc2nc3ccccc3nc2SCC(=O)N2CCCc3ccccc32)c1 | inactive: 129%
8 | Cc1ccc(-c2nn(CC(=O)NCc3ccccc3)c3c2cnc2ccc(F)cc23)cc1C | inactive: 59%
9 | O=C(CSc1nccn1C1CCCC1)Nc1cc(C(F)(F)F)ccc1Cl | inactive: 80%
10 | CCOC(=O)c1c(NC(=O)c2cc(=O)c3cc(C)cc(C)c3o2)sc(C)c1C | inactive: 91%
11 | Cc1c(NC(=O)C(C)(C)Oc2ccc(Cl)cc2)cccc1-c1nc2ccccc2o1 | active: 1%
12 | COc1ccc(OC)c(-n2c3c(cc(-c4nc(-c5ccc(Cl)cc5)cs4)c2=O)C(=O)CC(C)(C)C3)c1 | inactive: 76%
13 | O=C(c1ccc2c(c1)N(Cc1ccccc1)C(=O)c1ccccc1S2(=O)=O)N1CCc2ccccc21 | inactive: 87%
14 | CCCNC(=O)CN1C(=O)COc2ccc(S(=O)(=O)N3CCC(C)CC3)cc21 | inactive: 121%
15 | COc1ccccc1CNC(=O)CSc1ccc(-c2sc(-c3ccccc3)nc2C)nn1 | inactive: 43%
16 | Cc1cc(F)ccc1S(=O)(=O)Nc1ccc(O)c(Sc2ncn[nH]2)c1 | inactive: 110%
17 | c1ccc(OCCSC2=NCCN2)cc1 | inactive: 117%
18 | O=S(=O)(c1ccc(Cl)cc1)c1nc(-c2ccco2)oc1SCc1ccccc1F | inactive: 80%
19 | CCC(=O)N1CCc2cc(S(=O)(=O)NC(Cc3ccccc3)C(=O)Nc3ccccc3C)ccc21 (configuration not stated) | inactive: 115%

Row | SMILES | survival
20 | CCOc1ccc(OCC)c(NC(=O)c2cc3ccccn3n2)c1 | inactive: 85%
21 | CN(C(=O)CSc1nnc(COc2ccccc2)o1)c1ccccc1 | inactive: 103%
22 | Cc1nc(Nc2ccc(S(N)(=O)=O)cc2)oc1C | inactive: 115%
23 | CC1CCCN(CC(=O)Nc2ccc(C(=O)O)cc2)C1 (configuration not stated) | inactive: 105%
24 | CC(=O)c1cccc(NS(=O)(=O)c2cc3c(cc2C)n(C)c(=O)c(=O)n3C)c1 | inactive: 92%
25 | O=C(Nc1sc2c(c1C(=O)Nc1ccccc1)CCC2)c1ccc(Br)cc1 | inactive: 133%
26 | CCOCCCNC(=O)C(c1ccccc1)N1Cc2ccccc2C1=O (configuration not stated) | inactive: 72%
27 | Cc1cccc(NC(=O)C(=O)NCC(c2ccc3c(c2)OCO3)N2CCN(c3ccccc3)CC2)c1 (configuration not stated) | inactive: 73%
28 | Cc1noc(/C=C/c2ccccc2F)c1S(=O)(=O)N1CCC(C(=O)N2CCOc3ccccc32)CC1 | inactive: 65%
29 | COc1ccc(C)cc1NC(=O)Nc1cccc(-c2noc(C)n2)c1 | inactive: 136%
30 | CCc1ccc(NC(=O)Cn2c(=O)n(CCC(=O)NCCc3ccc(Cl)cc3)c(=O)c3ccccc32)cc1 | inactive: 85%
31 | O=C(NC1CC1)C1C2C=CC3(O2)C1C(=O)N(C1CC1)C3C(=O)NC1CCCCC1 (configuration not stated) | inactive: 96%
32 | COC(=O)c1ccc(NC(=O)CSC2=NCCS2)cc1 | inactive: 102%
33 | COc1ccc(C(=O)Nc2nc(-c3nnn(-c4ccc(C(C)C)cc4)c3C)ns2)cc1 | inactive: 120%
34 | COc1ccccc1CCNC(=O)C(C)Sc1nc(-c2ccccc2)cc(C(F)(F)F)n1 (configuration not stated) | inactive: 53%
35 | CC(=NCCCn1ccnc1)c1c(C(F)(F)F)[nH]n(-c2nc3ccccc3s2)c1=O | inactive: 113%
36 | Cc1ccc(-c2cc(-c3ccccc3)c(C#N)c(SCC(O)CS(=O)(=O)Cc3ccccc3)n2)cc1 (configuration not stated) | inactive: 75%
37 | O=C(Cn1ncn2c(cc3ccccc32)c1=O)NCc1ccc(F)cc1 | inactive: 91%
38 | COc1ccc(F)cc1S(=O)(=O)Nc1cccc(-c2ccc(N3CCC(C)CC3)nn2)c1 | inactive: 129%

Row | SMILES | survival
39 | CC(C)c1ccc(-c2noc(C3CCCN(S(=O)(=O)c4ccccc4)C3)n2)cc1 (configuration not stated) | inactive: 103%
40 | COc1cccc(-c2nnn(CCc3nn[nH]n3)n2)c1 | inactive: 106%
41 | CCCOc1ccc(CNC(=O)c2[nH]c3cc(OC)ccc3c2Sc2ccccc2)cc1 | inactive: 99%
42 | N#Cc1c(/N=C/N2CCCCC2)sc2c1CCCC2 | inactive: 89%
43 | CCN1CCN(C(=S)NC)CC1 | inactive: 110%
44 | COc1ccc(Nc2ncnc3c2nc2n3CCCCC2)cc1 | inactive: 85%
45 | COc1ccc(CCNC(=O)c2c(C)oc3ncn(C)c(=O)c23)c(OC)c1 | inactive: 71%
46 | CC(=O)Nc1ccc(N(C(=O)Cn2nnc3ccccc32)C(C(=O)NCc2ccccc2)c2ccc(C)cc2)cc1 (configuration not stated) | inactive: 78%
47 | CCN(C(=O)CSc1nc2ccccc2n1Cc1ccc(F)cc1Cl)c1ccccc1 | inactive: 90%
48 | Cc1ccc2[nH]c(=O)c3cc(C(=O)NCCCN4CCC(C)CC4)sc3c2c1 | inactive: 68%
49 | O=C1C(c2ccc(F)cc2)N(CCc2ccccc2)C(=O)CN1C1CCCCCC1 (configuration not stated) | inactive: 81%
50 | CCCCNc1oc(-c2ccc(COc3ccc(OC)cc3)o2)nc1C#N | inactive: 92%
51 | Cc1ccc(Cl)cc1NC(=O)CN1C(=O)CCc2ccccc21 | inactive: 98%
52 | CCOC(=O)c1c(C)[nH]c(C)c1S(=O)(=O)N1CCC(C(=O)NCc2ccccc2Cl)CC1 | inactive: 129%
53 | COc1ccc(C)cc1N(C)C(=O)CCc1nc(-c2ccccc2F)no1 | inactive: 57%
54 | CCOC(=O)C(Cc1c[nH]c2ccccc12)NC(=O)COc1ccc(CC)cc1 (configuration not stated) | inactive: 32%
55 | Cc1cc(NC(=O)CN2CCC(C)CC2)nc2c1c(=O)oc1ccccc12 | inactive: 92%
56 | CN(C)c1ccc(Nc2ncnc3sc4c(c23)CCCC4)cc1 | inactive: 124%
57 | COc1ccc(CC(=O)NCc2nc3cccnc3n2Cc2ccccc2)cc1 | inactive: 59%

Reference: PubChem BioAssay AID463173 (ICCB-Longwood Screening Facility, Harvard Medical School, 2010)
